# The whole screen tested about 310,000 compounds, of which about 18,000 (5.8%) were called active. The inconclusive results got no clear call from the source; some entries with a clear call stand among them for comparison. Calls come from the whole dose curve; as a rule, active = well fitted inhibition curve with a large enough effect; inconclusive = small, poorly fitted or top-dose-only effect, or another doubt; inactive = no such curve, though single readings can be large or run the other way. Potencies of inconclusive entries are left out as doubtful fits.
# Experiment: Primary qHTS for delayed death inhibitors of the malarial parasite plastid, 48 hour incubation
# Conditions: P. falciparum luciferase growth in erythrocytes; series mostly up to 28.7 µM; activity change, negative = inhibition: at the top concentration
# Procedure, shortened: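 In quantitative HTS format, infected erythrocytes bearing luciferase-reporter parasites were treated for a single generation at 37 C. Luminescence after adding detection reagent served as the growth measure.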
# % is set by controls: 0 for no effect and ±100 for the full control effect; potency is the fitted concentration of half-maximal effect; tags give direction and shape of the fitted curve.
Compound,Potency,"activity change, negative = inhibition"
CCCC(=O)Nc1ccc2c(c1)nc(CN1CCN(C(=O)OCC)CC1)n2CC,"inconclusive [inhibitor, partial curve]",–
CCOc1ccc(C(C)(C)C)cc1S(=O)(=O)n1nc(C)cc1C,active: 4.65 µM,–
CC1Cc2cc(S(=O)(=O)NCCC(=O)NCc3ccc(F)cc3)ccc2N1C(=O)C1CC1 (centres undefined),"inconclusive [inhibitor, single point]",–
S=c1[nH]c2ccc(Cc3ccc4[nH]c(=S)[nH]c4c3)cc2[nH]1,"inconclusive [inhibitor, partial curve, poor fit]",–
COC(=O)C1=C(c2ccc(OCc3ccccc3)cc2)C[C@@H]2CC[C@H]1N2C(=O)NCc1ccccc1,active: 7.38 µM,–
COc1ccc(CN(C(=O)/C=C/C(=O)c2ccc(OC)cc2O)C(C(=O)NC2CCCCC2)c2ccncc2)cc1 (centres undefined),active: 11.7 µM,–
Cc1c(N=C2NN=C(c3ccc(Cl)cc3)CS2)c(=O)n(-c2ccccc2)n1C,"inconclusive [inhibitor, partial curve, poor fit]",–
COc1ccc(-n2ccn(CC(=O)Nc3ccc(OC)cc3OC)c(=O)c2=O)cc1,–,inactive: 0%
Cc1ccc(-c2nnc(SCC(=O)N/N=C/c3ccc(C)s3)n2-c2ccc(C)cc2)cc1,–,inactive: 5%
Cc1cc(C)c2sc(N(CCCN(C)C)C(=O)c3ccc(S(=O)(=O)N(C)C4CCCCC4)cc3)nc2c1,active: 10.4 µM,–
Cc1ccc(S(=O)(=O)Cc2cc(F)c([N+](=O)[O-])cc2[N+](=O)[O-])cc1,"inconclusive [inhibitor, partial curve]",–
Cc1ccc(NC(=O)CSc2nc(=O)n(CCCN3CCOCC3)c3c2CCCC3)c(C)c1,"inconclusive [inhibitor, single point]",–
O=C1OC(c2ccc(Cl)cc2)=N/C1=C\N1CC2CC(C1)c1cccc(=O)n1C2 (centres undefined),"inconclusive [inhibitor, partial curve]",–
CC(NC(=S)NCc1ccc(F)cc1)C12CC3CC(CC(C3)C1)C2 (centres undefined),"inconclusive [inhibitor, single point]",–
c1ccc(CNc2nc(CN3CCOCC3)nc3scc(-c4ccccc4)c23)cc1,"inconclusive [inhibitor, single point]",–
CC1CCCCC1NC(=S)NC(=O)c1ccccc1Br (centres undefined),"inconclusive [inhibitor, single point]",–
COc1ccc(S(=O)(=O)N2CCN(C(=O)NC3CCCCC3)CC2)cc1OC,"inconclusive [inhibitor, single point]",–
O=C(CN1C2=NCCN2c2ccccc21)C12CC3CC(CC(C3)C1)C2,"inconclusive [inhibitor, partial curve, poor fit]",–
Cc1c(Br)c([N+](=O)[O-])nn1CCCC(=O)NC(C)c1ccccc1 (centres undefined),–,inactive: 1.62%
CCCc1ccc(C(C)NC(=O)c2cnccn2)cc1 (centres undefined),"inconclusive [inhibitor, single point]",–
CN(Cc1ccc(Cl)s1)C(=O)CNC(=O)CNC(=O)c1ccc(Cl)cc1Cl,"inconclusive [inhibitor, single point]",–
O=C1c2ccccc2C(=O)N1CCCCCCc1ccccc1,–,inactive: 20.2%

Compound,Potency,"activity change, negative = inhibition"
COc1ccc(C2/C=C\CN(S(=O)(=O)c3ccc(C)cc3)CC(=O)N2Cc2ccc(F)cc2)cc1 (centres undefined),"inconclusive [inhibitor, single point]",–
CSc1nnc(C(C)(C)C)c(=O)n1/N=C/c1ccc(C(C)C)cc1,"inconclusive [inhibitor, partial curve, poor fit]",–
CCc1nc2ccccc2c(C(=O)OCC(=O)Nc2cccc(S(=O)(=O)N3CCOCC3)c2)c1C,"inconclusive [inhibitor, partial curve]",–
COc1ccccc1C(=O)NCCn1cc(SCC(=O)Nc2cc(C)on2)c2ccccc21,"inconclusive [inhibitor, partial curve]",–
CC(C)NC(=O)CN(C(=O)CCC(=O)Nc1nccs1)c1ccc(C(C)C)cc1,–,inactive: -27.1%
COc1cc(CNC2CCCc3ccccc32)cc(OC)c1OC (centres undefined),"inconclusive [inhibitor, partial curve, poor fit]",–
Cc1cc(C(=O)NC2CC(C)(C)Cc3c2cnn3-c2cccc(F)c2)n(C)n1 (centres undefined),"inconclusive [inhibitor, partial curve, poor fit]",–
O=C(CC(c1ccccc1)c1ccccc1O)NCc1ccccc1Cl (centres undefined),"inconclusive [inhibitor, partial curve, poor fit]",–
N#CCCN(C(=O)COC(=O)CCc1c[nH]c2ccccc12)c1ccc(F)cc1,"inconclusive [inhibitor, single point]",–
COc1ccc(OC)c(S(=O)(=O)NCC(c2ccc3c(c2)OCO3)N2CCOCC2)c1 (centres undefined),"inconclusive [inhibitor, single point]",–
Cc1nn(CC(=O)c2ccc(Cl)cc2Cl)c(C)[n+]1N,"inconclusive [inhibitor, single point]",–
CCCOc1cccc(C2C(C(=O)c3cc4ccccc4o3)=C(O)C(=O)N2c2cc(C)on2)c1 (centres undefined),"inconclusive [inhibitor, full curve]",–
CC(C)c1nc(NCc2ccccc2)c(C#N)c2c1CCCC2,"inconclusive [inhibitor, partial curve, poor fit]",–
O=C(/C=C/c1ccc([N+](=O)[O-])cc1)N(c1ccccn1)C1CCCCC1,"inconclusive [inhibitor, single point]",–
O=C(NCc1ccc(Cl)cc1)C1CCC(CNc2c(N3CCCC3)c(=O)c2=O)CC1 (centres undefined),"inconclusive [inhibitor, partial curve]",–
O=C(NCCNc1cc(Cl)ccc1[N+](=O)[O-])c1ccco1,"inconclusive [inhibitor, single point]",–
O=C(O)C1CCCN1c1nc(-c2ccc(Cl)c(Cl)c2)cc(C(F)(F)F)n1 (centres undefined),"inconclusive [inhibitor, partial curve, poor fit]",–
Cc1c(C)n(C)c2ccc(C(=O)Nc3cccc4ccccc34)cc12,"inconclusive [inhibitor, partial curve, poor fit]",–
O=C(COc1ccc(F)cc1)Nc1cc(S(=O)(=O)N2CCCCC2)ccc1N1CCCCC1,active: 3.7 µM,–
COc1ccc(C2CC(c3ccccc3C)n3nc(N)nc3N2)cc1 (centres undefined),–,inactive: 3.6%
CCC(C(=O)NCc1ccco1)N(C(=O)CNS(=O)(=O)c1ccc(C)cc1)c1ccccc1F (centres undefined),"inconclusive [inhibitor, partial curve]",–
COCCN1C(=O)C(CC(=O)Nc2ccc(C(C)=O)cc2)SC1=Nc1ccccc1 (centres undefined),"inconclusive [inhibitor, single point]",–

Compound,Potency,"activity change, negative = inhibition"
O=C(Cc1ccc(S(=O)(=O)N2CCOCC2)s1)NNC(=O)c1ccccc1Cl,–,inactive: -13.6%
CCCCn1c(=O)c(C(=O)Nc2cccc(C)c2)c(O)c2ccccc21,"inconclusive [inhibitor, partial curve, poor fit]",–
Cc1cccc(Cn2cnc3c(nnn3Cc3ccc(F)cc3)c2=O)c1,"inconclusive [inhibitor, partial curve]",–
CC(=O)N1CCc2cc(N=NC3=C(O)CC(C)(C)CC3=O)ccc21,"inconclusive [inhibitor, single point]",–
NC(=O)COC(=O)c1c2c(nc3ccccc13)CCC2,–,inactive: 218%
OCC1OC(Oc2c[nH]c3ccccc23)C(O)C(O)C1O (centres undefined),"inconclusive [inhibitor, single point]",–
Cn1c(=O)c2c(nc(NCC3CCCO3)n2Cc2ccccc2)n(C)c1=O (centres undefined),–,inactive: -3.4%
COc1ccc(/C=C/c2ccc(=O)n(Cc3ccccc3)n2)cc1,"inconclusive [inhibitor, single point]",–
COc1ccccc1/C=C/C(=O)NC(=S)Nc1ccc(S(=O)(=O)N(C)c2ccccc2)cc1,"inconclusive [inhibitor, single point]",–
Cc1ccc(C(C(=O)NC2CCCCC2)N(CC2CCCO2)C(=O)CCCC(=O)Nc2ccccn2)cc1 (centres undefined),"inconclusive [inhibitor, single point]",–
Cc1ccc(N2C(=O)CC(Sc3ccccc3C(=O)O)C2=O)c([N+](=O)[O-])c1 (centres undefined),–,inactive: -4.09%
COC(=O)C1=C(c2ccc(F)cc2OCc2ccccc2)C[C@@H]2CC[C@H]1N2C(=O)NCc1ccc(OC)c(OC)c1,"inconclusive [inhibitor, partial curve, poor fit]",–
CNCc1ccccc1Sc1cccc2ccccc12,"inconclusive [inhibitor, partial curve, poor fit]",–
CCOc1ccc(C2=Nn3c(nnc3-c3ccccc3)SC2)cc1Cl,–,inactive: 7.56%
CCOc1ccccc1NC(=O)c1ccc2[nH]c(C)c(C)c2c1,active: 14.7 µM,–
COc1ccc(OCCCC(=O)N2CCCc3ccccc32)cc1,–,inactive: -6.96%
C=CCn1c(SCC(=O)c2ccc(CNC(C)=O)o2)nc2scc(C3CC3)c2c1=O,"inconclusive [inhibitor, partial curve]",–
CCc1ccc2c(CN3CC=C(c4ccccc4)CC3)cc(=O)oc2c1,"inconclusive [inhibitor, single point]",–
COc1cccc(OC)c1NC(=O)C1CCCN1C(=O)Nc1ccccc1F (centres undefined),–,inactive: 10.9%
COc1cccc(C2c3[nH]c4ccccc4c3C[C@H]3C(=O)N(C4CC4)CC(=O)N23)c1 (some centres undefined),active: 3.29 µM,–

# Reference: PubChem BioAssay AID504832 (National Center for Advancing Translational Sciences (NCATS), 2011)
